According to publication PMC11995724, “Antibiotic target discovery by integrated phenotypic and activity-based profiling of electrophilic fragments” (Cell chemical biology, 2025):
In all, about 3,200 compounds went through this assay and about 75 (2%) showed an effect of 50% or more. This is one part of the list.

The compounds below were run on T1, S. aureus MSSA476. Conditions: relative growth, OD600, TSB; 25 µM; inhibitor.
T1 construct: MSSA476
Set-up: species or system S. aureus MSSA476 (TSB) or V. cholerae SAD30 (LB); 384-well bacterial growth screen at 25 uM, OD600 relative to DMSO control

Compound | % of control remaining
C=CC(=O)N(CCC(N)=O)C1CCOc2ccccc21 (centres unmarked) [3-F13, N-(2-carbamoylethyl)-N-(3,4-dihydro-2H-1-benzopyran-4-yl)prop-2-enamide] | 116.326%
O=C(CCl)Nc1nc(-c2cccs2)cs1 [5-D18, 2-chloro-N-[4-(thiophen-2-yl)-1,3-thiazol-2-yl]acetamide] | 71.7668%
COC(=O)c1ccc(C=C(C#N)C(=O)NC(C)C)n1C [9-P12, methyl 5-{2-cyano-2-[(propan-2-yl)carbamoyl]eth-1-en-1-yl}-1-methyl-1H-pyrrole-2-carboxylate] | 89.8876%
CC(O)=C(C#N)C(=O)Nc1ccc(-c2ccccc2Cl)c(Cl)c1 [9-L22, 2-cyano-N-{2,2'-dichloro-[1,1'-biphenyl]-4-yl}-3-hydroxybut-2-enamide] | 33.2584%
C=CC(=O)Nc1ccc(C(=O)N(C)C[C@@H]2CCC(=O)N2)cc1 [2-L18, N-methyl-N-{[(2S)-5-oxopyrrolidin-2-yl]methyl}-4-(prop-2-enamido)benzamide] | 106.179%
N#CC(=Cc1cccc(F)c1)C(=O)NCc1ccccc1 [9-K09, N-benzyl-2-cyano-3-(3-fluorophenyl)prop-2-enamide] | 92.5843%
C=CC(=O)N1CCC(C(=O)NCc2nccn2-c2ccccc2)CC1 [3-B03, N-[(1-phenyl-1H-imidazol-2-yl)methyl]-1-(prop-2-enoyl)piperidine-4-carboxamide] | 120.505%
O=C(CCl)Nc1ccc(OC(F)F)cc1 [4-J10, 2-chloro-N-[4-(difluoromethoxy)phenyl]acetamide] | 103.668%
N#CC(=Cc1cccc(O)c1)C(=O)Nc1ccccc1C(=O)O [9-O16, 2-[2-cyano-3-(3-hydroxyphenyl)prop-2-enamido]benzoic acid] | 71.6105%
CCc1cc(SC#N)cc(C)c1NC(=O)CCl [4-M04, 2-chloro-N-[4-(cyanosulfanyl)-2-ethyl-6-methylphenyl]acetamide] | 101.382%
CC(C)N(C)S(=O)(=O)c1ccc(NC(=O)CCl)cc1 [4-K13, 2-chloro-N-{4-[methyl(propan-2-yl)sulfamoyl]phenyl}acetamide] | 115.865%
COc1ccc(-n2c(C)cc(C=C(C#N)C(=O)N(C)OC)c2C)cc1 [9-N16, 2-cyano-N-methoxy-3-[1-(4-methoxyphenyl)-2,5-dimethyl-1H-pyrrol-3-yl]-N-methylprop-2-enamide] | 76.1049%
COc1ccc(N(C(=O)CCl)C2C=CS(=O)(=O)C2)cc1 (centres unmarked) [5-H14, 2-chloro-N-(1,1-dioxo-2,3-dihydro-1lambda6-thiophen-3-yl)-N-(4-methoxyphenyl)acetamide] | 89.6175%
Cc1ccccc1NC(=O)C(C#N)=Cc1cccnc1 [8-D10, 2-cyano-N-(2-methylphenyl)-3-(pyridin-3-yl)prop-2-enamide] | 102.573%
O=C1C=CC(=O)N1c1ccc(SC(F)F)cc1 [10-A18, 1-{4-[(difluoromethyl)sulfanyl]phenyl}-2,5-dihydro-1H-pyrrole-2,5-dione] | 29.6875%
CC(Cl)C(=O)NC(C)c1nc(-c2cccnc2)cs1 (centres unmarked) [6-P07, 2-chloro-N-{1-[4-(pyridin-3-yl)-1,3-thiazol-2-yl]ethyl}propanamide] | 82.9756%
CCc1nc2cc(CNC(=O)C(C)Cl)ccc2n1C1CC1 (centres unmarked) [6-N09, 2-chloro-N-[(1-cyclopropyl-2-ethyl-1H-1,3-benzodiazol-5-yl)methyl]propanamide] | 99.7073%
O=C(CCl)N1N=C(c2cccs2)CC1c1ccccc1O (centres unmarked) [4-K20, 2-chloro-1-[5-(2-hydroxyphenyl)-3-(thiophen-2-yl)-4,5-dihydro-1H-pyrazol-1-yl]ethan-1-one] | 3.049%
N#CC(=Cc1cc(Cl)ccc1O)C(=O)Nc1cccc2ccccc12 [9-P17, 3-(5-chloro-2-hydroxyphenyl)-2-cyano-N-(naphthalen-1-yl)prop-2-enamide] | 74.0075%
Cc1cc(C=C(C#N)C(=O)Nc2ccccc2)c(C)n1CC(C)C [9-A07, 2-cyano-3-[2,5-dimethyl-1-(2-methylpropyl)-1H-pyrrol-3-yl]-N-phenylprop-2-enamide] | 85.3933%
N#CC(=Cc1ccc2c(c1)OCCO2)C(=O)Nc1ccc(F)cc1 [9-K20, 2-cyano-3-(2,3-dihydro-1,4-benzodioxin-6-yl)-N-(4-fluorophenyl)prop-2-enamide] | 85.0936%
C=CC(=O)NCC1(OC)CCC(C)CC1 (centres unmarked) [1-P08, N-[(1-methoxy-4-methylcyclohexyl)methyl]prop-2-enamide] | 89.3187%

Compound | % of control remaining
C=CC(=O)N1CCC(S(=O)(=O)NC(C)C)C1 (centres unmarked) [1-D19, 1-(prop-2-enoyl)-N-(propan-2-yl)pyrrolidine-3-sulfonamide] | 109.714%
N#CC(=Cc1ccccc1)C(=O)NC1CCCCCCC1 [8-G17, 2-cyano-N-cyclooctyl-3-phenylprop-2-enamide] | 98.9212%
C=CC(=O)NCc1ccnn1C [1-H20, N-[(1-methyl-1H-pyrazol-5-yl)methyl]prop-2-enamide] | 132.22%
O=C(CCl)NCCOc1ccc(F)cc1 [6-A08, 2-chloro-N-[2-(4-fluorophenoxy)ethyl]acetamide] | 80.5854%
CC(Cl)C(=O)Nc1sccc1C#N (centres unmarked) [5-E21, 2-chloro-N-(3-cyanothiophen-2-yl)propanamide] | 103.097%
O=C(O)c1coc(C(=O)CCl)c1 [10-B07, 5-(2-chloroacetyl)furan-3-carboxylic acid] | 79.6875%
CCc1cc(SC#N)cc(CC)c1NC(=O)CCl [4-J12, 2-chloro-N-[4-(cyanosulfanyl)-2,6-diethylphenyl]acetamide] | 112.053%
C=CC(=O)N(C)CC(=O)Nc1ccc(N2CCOCC2=O)c(C)c1 [3-J07, N-methyl-N-({[3-methyl-4-(3-oxomorpholin-4-yl)phenyl]carbamoyl}methyl)prop-2-enamide] | 101.35%
Cc1csc(C(C#N)C(=O)CCl)n1 (centres unmarked) [10-D12, 4-chloro-2-(4-methyl-1,3-thiazol-2-yl)-3-oxobutanenitrile] | 92.5%
Cc1ccc(Cc2cnc(NC(=O)CCl)s2)cc1 [5-K03, 2-chloro-N-{5-[(4-methylphenyl)methyl]-1,3-thiazol-2-yl}acetamide] | 107.832%
CN(CC1CCCCC1)C(=O)C(C)(C)NC(=O)CCl [6-A19, 2-(2-chloroacetamido)-N-(cyclohexylmethyl)-N,2-dimethylpropanamide] | 86.3902%
CC1Cc2cc(C(=O)CCl)ccc2N1S(C)(=O)=O (centres unmarked) [10-A04, 2-chloro-1-(1-methanesulfonyl-2-methyl-2,3-dihydro-1H-indol-5-yl)ethan-1-one] | 1.875%
Cc1nn(-c2ccccc2)c(C)c1CN(C)C(=O)CCl [7-B03, 2-chloro-N-[(3,5-dimethyl-1-phenyl-1H-pyrazol-4-yl)methyl]-N-methylacetamide] | 93.5636%
O=C(CCl)c1ccc(Oc2ccccc2)cc1 [10-G20, 2-chloro-1-(4-phenoxyphenyl)ethan-1-one] | -0.625%
CC(C)NC(=O)C(C#N)=Cc1c(Cl)cccc1Cl [9-E13, 2-cyano-3-(2,6-dichlorophenyl)-N-(propan-2-yl)prop-2-enamide] | 139.326%
CN(C)C(CNC(=O)CCl)c1ccccc1.Cl (centres unmarked) [4-B21, 2-chloro-N-[2-(dimethylamino)-2-phenylethyl]acetamide hydrochloride] | 102.525%
N#CC(=Cc1ccc(F)cc1)C(=O)Nc1ccc(C(=O)O)cc1 [8-L07, 4-[2-cyano-3-(4-fluorophenyl)prop-2-enamido]benzoic acid] | 95.9336%
COc1cc(C=C(C#N)C(=O)Nc2ccc(C)cc2)cc(Cl)c1O [8-P05, 3-(3-chloro-4-hydroxy-5-methoxyphenyl)-2-cyano-N-(4-methylphenyl)prop-2-enamide] | 89.2946%
CC(NC(=O)CCl)c1nc(Cc2ccccc2)no1 (centres unmarked) [6-L07, N-[1-(3-benzyl-1,2,4-oxadiazol-5-yl)ethyl]-2-chloroacetamide] | 117.122%
C=CC(=O)N(C)CC(=O)N1CCn2cccc2C1C (centres unmarked) [2-K10, N-methyl-N-(2-{1-methyl-1H,2H,3H,4H-pyrrolo[1,2-a]pyrazin-2-yl}-2-oxoethyl)prop-2-enamide] | 96.7798%
N#CC(=Cc1ccc(N2CCCCC2)cc1)C(=O)Nc1nccs1 [8-C04, 2-cyano-3-[4-(piperidin-1-yl)phenyl]-N-(1,3-thiazol-2-yl)prop-2-enamide] | 97.2614%
CC(Cl)C(=O)N1Cc2cccn2[C@@H](C)C1 (stereo partly drawn) [7-N22, 2-chloro-1-[(4S)-4-methyl-1H,2H,3H,4H-pyrrolo[1,2-a]pyrazin-2-yl]propan-1-one] | 74.7253%
